Test results as given in the supplement of paper PMC4166925.
± gives the standard deviation of the averaged measurements. Over roughly 33,000 sequences, “E-score (dimensionless, -0.5 to 0.5)” has its median near -0.046; the highest 2% begin near 0.36. This is one part of the list.

Each sequence was assayed on T1, SpTbr T-box DNA-binding domain (GST fusion) (assay: PBM E-score of 8-mer (E-score (dimensionless, -0.5 to 0.5)); Tbr is Tbrain of the sea star Patiria miniata (Pm) or the sea urchin Strongylocentrotus purpuratus (Sp); higher = stronger binding preference; most listed sequences are background and not binding sites). Conditions: the construct has about 5 more residues each side.
T1 sequence: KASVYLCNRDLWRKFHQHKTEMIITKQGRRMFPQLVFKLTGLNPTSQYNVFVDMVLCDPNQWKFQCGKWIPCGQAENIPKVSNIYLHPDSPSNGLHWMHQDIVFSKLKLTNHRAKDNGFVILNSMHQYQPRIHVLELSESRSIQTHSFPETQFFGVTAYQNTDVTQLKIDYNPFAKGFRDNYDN
Outline: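 Expression of GST-fused Tbr T-box DNA-binding domains, each holding the full T-box plus roughly five flanking residues, was carried out in BL21 E. coli at 20 °C, with purification by glutathione affinity chromatography. Universal Agilent arrays made double-stranded by primer extension were incubated with the protein at 200 nM in PBS (pH 7.5), then scanned and quantified. All ungapped 8-mers were scored from probe intensities, and each received an enrichment E-score from the Universal PBM Analysis Suite, averaged over duplicate arrays.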

| Sequence | PBM E-score of 8-mer |
| --- | --- |
| GATGAACA | -0.0218 ± 0.061 |
| CTTGTTTC | 0.0184 ± 0.067 |
| ATCTTCAT | 0.104 ± 0.0029 |
| AACTTCGA | 0.0164 ± 0.033 |
| CTCAGATA | -0.216 ± 0.056 |
| AGAACGTG | 0.186 ± 0.0079 |
| AATAACAT | -0.056 ± 0.057 |
| CTTATTGC | 0.0127 ± 0.024 |
| AAGTATGT | -0.0386 ± 0.028 |
| CAGGCGCA | -0.102 ± 0.085 |
| AGCAGTGC | -0.00363 ± 0.029 |
| TTGCGCAA | 0.14 ± 0.029 |
| TAGGCGGA | -0.275 ± 0.055 |
| CGGTGGGC | -0.0799 ± 0.026 |
| CAACCTTG | 0.0419 ± 0.059 |
| AATTTACT | -0.165 ± 0.059 |
| TAGGGTCA | -0.125 ± 0.0069 |
| ACATCGAC | 0.232 ± 0.031 |
| CCCGGACG | -0.188 ± 0.026 |
| ATCACCAA | 0.175 ± 0.0053 |
| AGACCGCC | -0.156 ± 0.012 |
| CGCATTTA | 0.0985 ± 0.028 |
| CCCAGAGG | -0.127 ± 0.05 |
| ATCCCACC | 0.311 ± 0.006 |
| AGGCGCAA | 0.326 ± 0.028 |

| Sequence | PBM E-score of 8-mer |
| --- | --- |
| TTCCGCAA | -0.0642 ± 0.02 |
| ATCCGAAG | -0.211 ± 0.011 |
| ATATCCCG | -0.129 ± 0.034 |
| CATAGTAC | -0.0998 ± 0.079 |
| GAACCCTC | -0.224 ± 0.012 |
| GGTTCCGA | -0.278 ± 0.025 |
| CTTGTAGA | -0.184 ± 0.067 |
| CGAACTAG | 0.0383 ± 0.022 |
| CAGTTTCA | 0.0753 ± 0.036 |
| CGTCTATC | -0.313 ± 0.018 |
| GTACCCAC | 0.0971 ± 0.053 |
| GTTTGCTA | 0.0463 ± 0.038 |
| CCACTATC | 0.129 ± 0.028 |
| GTAACATA | 0.0195 ± 0.023 |
| CTTCCGCC | -0.0616 ± 0.065 |
| ATCATTGA | -0.0521 ± 0.04 |
| GTATGACA | 0.171 ± 0.071 |
| ATGAGAGC | -0.212 ± 0.034 |
| GAACTTAA | -0.0875 ± 0.035 |
| TTAACGAA | 0.0574 ± 0.049 |
| AGGCACGC | 0.195 ± 0.1 |
| CCTGAGCG | -0.0465 ± 0.036 |
| TACGTCAA | -0.192 ± 0.022 |
| ATTCCTTA | -0.161 ± 0.012 |
| ACCATTAA | -0.059 ± 0.16 |

| Sequence | PBM E-score of 8-mer |
| --- | --- |
| AACCCAGA | 0.0319 ± 0.023 |
| AACTAATG | -0.0496 ± 0.012 |
| AACGGTGT | 0.175 ± 0.097 |
| GCAGTGAA | 0.0838 ± 0.019 |
| CAGTACTC | 0.0271 ± 0.023 |
| CACACATA | 0.3998 ± 0.0028 |
| CTGTGCAA | -0.205 ± 0.034 |
| CCGTGACC | 0.0362 ± 0.0016 |
| AGGCTCTC | -0.175 ± 0.028 |
| CCCTAGTC | 0.0588 ± 0.035 |
| CCACCGTA | -0.0423 ± 0.022 |
| GAAGGCTC | -0.226 ± 0.039 |
| CTGACGCA | 0.1611 ± 0.00065 |
| CACATGAA | 0.181 ± 0.078 |
| ATAAGAAC | -0.134 ± 0.049 |
| TCTTCGAA | -0.0319 ± 0.031 |
| CTAAGAAC | -0.0621 ± 0.059 |
| AACTTATA | -0.235 ± 0.0056 |
| ATCAGCGG | -0.00193 ± 0.058 |
| CAGCACGG | -0.0611 ± 0.049 |
| ACGAGTAG | -0.213 ± 0.043 |
| AATTTGCC | -0.0934 ± 0.04 |
| CTTCGACC | -0.306 ± 0.014 |
| ATACCAAT | -0.091 ± 0.03 |
| CAATGCCG | -0.235 ± 0.043 |

| Sequence | PBM E-score of 8-mer |
| --- | --- |
| GATTAGCC | -0.13 ± 0.06 |
| TATTCTCA | 0.264 ± 0.061 |
| AAATACGG | 0.00766 ± 0.039 |
| CAACGGGG | 0.000945 ± 0.0056 |
| CCGTCAAG | 0.131 ± 0.03 |
| AACAATAA | 0.0691 ± 0.025 |
| ATCACCAT | 0.115 ± 0.012 |
| CATTTAAC | 0.207 ± 0.059 |
| CCCAAGGA | -0.017 ± 0.051 |
| CTCGCCAC | 0.288 ± 0.074 |
| GTATCGAC | 0.051 ± 0.022 |
| ATTCACCG | 0.0187 ± 0.041 |
| GCAACACA | 0.267 ± 0.014 |
| AACCATGT | 0.22 ± 0.017 |
| ACCGAATG | -0.1773 ± 0.0017 |
| AAACGCCG | 0.0493 ± 0.018 |
| AGTCTAAC | -0.12 ± 0.0043 |
| ACCTCTGA | 0.0163 ± 0.011 |
| GAGAGGGC | 0.046 ± 0.11 |
| AACCTGGC | 0.0794 ± 0.017 |
| CGAGATGA | -0.113 ± 0.01 |
| CCCCTGGC | -0.101 ± 0.024 |
| CAGTGAAG | 0.0203 ± 0.027 |
| ATCTTGGG | -0.181 ± 0.042 |
| GTAGAGTA | -0.138 ± 0.067 |

| Sequence | PBM E-score of 8-mer |
| --- | --- |
| GGTCACAA | 0.2073 ± 0.00096 |
| GACTAATC | -0.12 ± 0.024 |
| GTCCCAAC | -0.198 ± 0.015 |
| CAAGGTGC | 0.421 ± 0.0087 |
| ACTAATTC | -0.0835 ± 0.014 |
| AAAGGCCC | -0.3751 ± 0.0018 |
| AGCATTCA | -0.0969 ± 0.071 |
| GATGCATC | -0.279 ± 0.056 |
| ATCCATAA | -0.205 ± 0.037 |
| AGTGATTC | 0.138 ± 0.052 |
| ACGGTAAT | -0.0139 ± 0.064 |
| ACATCAGA | -0.198 ± 0.078 |
| AGACGTGC | 0.0338 ± 0.037 |
| AGCCTGTA | -0.21 ± 0.015 |
| GCGTAAGA | -0.00479 ± 0.014 |
| AACGGAGG | 0.0387 ± 0.059 |
| AAAATCCA | -0.268 ± 0.01 |
| GACTACCC | -0.111 ± 0.024 |
| AATAGGCG | 0.161 ± 0.023 |
| AACTCTGT | -0.042 ± 0.025 |
| CGCCTACC | 0.108 ± 0.0016 |
| ACCATCAC | 0.2525 ± 0.0011 |
| GCGAACTA | 0.272 ± 0.0034 |
| AGCATTGC | -0.0499 ± 0.076 |
| GGGTACAA | -0.302 ± 0.016 |

| Sequence | PBM E-score of 8-mer |
| --- | --- |
| CGGCAAAG | -0.233 ± 0.029 |
| ACGTTTCA | -0.0602 ± 0.01 |
| CGACCGGC | -0.054 ± 0.056 |
| AAACATCT | -0.163 ± 0.057 |
| GGTATCCA | -0.317 ± 0.072 |
| GTTGGTCA | -0.052 ± 0.042 |
| AACTAGCA | 0.178 ± 0.019 |
| ACATCCTG | -0.0152 ± 0.034 |
| AGTAATCG | 0.087 ± 0.023 |
| AGACTGCT | -0.259 ± 0.018 |
| AGATCTGC | 0.1 ± 0.0022 |
| GCGTTCCC | 0.0935 ± 0.063 |
| GTCCTACA | -0.182 ± 0.021 |
| ACTTGATC | -0.11 ± 0.02 |
| GGACGTTA | -0.24 ± 0.018 |
| AGCATAAG | -0.258 ± 0.046 |
| AATCTGTA | -0.191 ± 0.059 |
| ATCACATC | 0.109 ± 0.02 |
| ATACAAAT | -0.26 ± 0.0076 |
| TAATAGCA | 0.114 ± 0.087 |
| GCCCCCGA | -0.173 ± 0.055 |
| ATTTCTTA | -0.197 ± 0.048 |
| ACTGTTGG | 0.144 ± 0.029 |
| AGACGAAT | -0.0499 ± 0.015 |
| CGATGAAG | 0.00937 ± 0.009 |

| Sequence | PBM E-score of 8-mer |
| --- | --- |
| AAGCATCG | -0.208 ± 0.016 |
| ATCTTCCG | -0.0952 ± 0.073 |
| ACCGATCT | -0.0569 ± 0.026 |
| CCGCAATC | -0.0149 ± 0.00019 |
| AGAGTCTC | -0.00505 ± 0.057 |
| CCTTAACA | 0.221 ± 0.054 |
| AGGGGATA | -0.145 ± 0.048 |
| ATTTAGTG | 0.089 ± 0.0092 |
| ATGATATA | -0.0184 ± 0.0082 |
| CTACTCCC | -0.28218 ± 7.1e-05 |
| AGGTGTAT | 0.281 ± 0.011 |
| ATAGCACA | 0.156 ± 0.06 |
| ACGGTTAC | -0.0916 ± 0.0079 |
| CGTAAACG | 0.132 ± 0.0021 |
| CTTGGGAC | -0.176 ± 0.013 |
| CTACCGTA | -0.106 ± 0.02 |
| ACCGTTTC | -0.0737 ± 0.069 |
| AAGTCTGT | -0.148 ± 0.015 |
| GACCGCCC | -0.266 ± 0.006 |
| CGGGTTGC | 0.117 ± 0.042 |
| ATACGAAG | -0.163 ± 0.037 |
| AAATAAAC | -0.0755 ± 0.03 |
